The values below come from US20250295802A1, “HER3 ANTIBODY-DRUG CONJUGATE AND USE THEREOF” (DUALITY BIOLOGICS (SUZHOU) CO., LTD., priority 2022, published 2025).

For one experiment, the system named is MDA-MB-453 cells. The experiment is described as follows: Internalization of antibody-drug conjugates with pHrodo in MDA-MB-453 cells. The experiment is classed as cell-based. The settings on record: 10 nM. As for the experimental part:
The up-taken of the antibody-drug conjugate of the present application against the HER3 target on MDA-MB-453 cells expressing HER3 was detected. The cell, the antibody-drug conjugate (ADC) with a fixed concentration, and an internalization indicating reagent pHrodo were co-incubated, and the endocytosis capacity of the antibody-drug conjugate was evaluated by observing the number of fluorescent signal bright dots generated by pHrodo which entered the cell along with the antibody-drug conjugate in the cell at different time points.
• 1. Cell culture: MDA-MB-453 cells were cultured using a 10% FBS Leibovitz's L-15 medium. • 2. Cell preparation: MDA-MB-453 cells in logarithmic phase were taken, washed with PBS once, and digested with 2-3 mL of Versene for 2-3 min. After the cells were digested completely, 10-15 mL of cell culture was added to elute the digested cells. The eluate was centrifuged at 1000 rpm for 5 min, and the supernatant was discarded. The resulting cells were resuspended in cell culture to give a single cell suspension, which was adjusted to a viable cell density of […] cells/mL. • 3. Cell plating: the cell suspension was added to a 96-well cell culture plate at 50 μL/well. The culture plate was incubated in an incubator for 18 h (37° C., 5% CO2). • 4. Sample adding: the test antibody-drug conjugate was co-incubated with Fab-pHrodo to form a complex, adjusted to a concentration of 10 nM, and added to the cells at 50 μL/well. • 5. Culturing of cells: the culture plate was incubated in an incubator for 2, 4, 6, 24, or 48 h (37° C., 5% CO2). • 6. Plate reading: when the corresponding time point was reached, the 96-well cell culture plate was taken out, Hoechst33342 was added to perform cell nucleus staining, the plate was placed in operatta CLS for photographing, and the number of cells and the number of fluorescent bright dots in each cell were read. The average number of cell fluorescent dots was calculated using Harmony® imaging and analysis software.

A further experiment deals with Colo205 xenograft. The experiment is described as follows: Efficacy in Colo205 tumor-bearing mice. The note with it: 1 mg/kg tail vein 1 time every two weeks; end of experiment, 22 days. The experiment is classed as in vivo, mouse. As for the experimental part: To evaluate the anti-tumor effect of the antibody-drug conjugates of the present application using BALB/c nude mice as test animals; • Blank control (negative control group): […] Colo205 cells were subcutaneously inoculated into the right flank of the mice, 1×10^7 cells (100 μL/mouse). When the tumors grew to 80-120 mm^3, the animals were randomly grouped, 5 animals per group. The day of administration for each group was defined as day 0. The administration was performed by tail vein injection 1 time every two weeks, and the experiment ended 22 days after the administration. The tumor volume and weight were measured twice a week, and the data were recorded. At the end of the experiment, mice were euthanized and tumor growth inhibition TGI % was calculated as follows: (TGI=(1−(Ti−T0)/(Vi−V0))). Ti: mean tumor volumes of the treatment groups and the positive control group on day i of administration; T0: mean tumor volumes of the treatment groups and the positive control group on day 0 of administration; Vi: mean tumor volume of the negative control group on day i of administration; V0: mean tumor volume of the negative control group on day 0 of administration. Data were analyzed using Excel 2016 statistical software, wherein the mean value was calculated as avg; the SD value was calculated as STDEV; and the P value of the difference between groups was calculated as TTEST.

Experiment [1] concerns HCC1569 breast cancer cells subcutaneous xenograft. As to the kind of experiment: Efficacy in HCC1569 tumor-bearing mice. The settings on record: 1 mg/kg tail vein 1 time per week; end of experiment, 21 days. The experiment is classed as in vivo, mouse. As for the experimental part:
To evaluate anti-tumor effect of the antibody-drug conjugates of the present application in a female NOD/SCID mouse model with subcutaneous xenograft of HCC1569 breast cancer cells. • Blank control (negative control group): […] The growth of the tumors was monitored. […] The day of administration for each group was defined as day 0. The administration was performed by tail vein injection 1 time per week, and the experiment ended 21 days after the administration. The tumor volume and weight were measured twice a week, and the data were recorded. At the end of the experiment, mice were euthanized and tumor growth inhibition TGI % was calculated as follows: (TGI=(1−(Ti−T0)/(Vi−V0))). Ti: mean tumor volumes of the treatment groups and the positive control group on day i of administration; TO: mean tumor volumes of the treatment groups and the positive control group on day 0 of administration; Vi: mean tumor volume of the negative control group on day i of administration; V0: mean tumor volume of the negative control group on day 0 of administration. Data were analyzed using Excel 2016 statistical software, wherein the mean value was calculated as avg; the SD value was calculated as STDEV; and the P value of the difference between groups was calculated as TTEST.

The next experiment has as its system MDA-MB-231 cells. The experiment is described as follows: In vitro proliferation inhibition (CTG), MDA-MB-231. The experiment is classed as cell-based. The note with it: 6 days of culture, not expressing Her3. As for the experimental part:
To test the proliferation inhibitory activity of the antibody-drug conjugate of the present application targeting HER3 to HCC1569 and MDA-MB-453 cells with high expression of Her3 and MDA-MB-231 tumor cells not expressing Her3 in vitro. The cells were treated with the antibody-drug conjugates at different concentrations in vitro, and after 6 days of culture, the proliferation of cells was detected using the CTG reagent, and the in vitro activity of the compounds was evaluated according to the 50% growth inhibitory concentration (IC50) value.
• 1. Cell culture: HCC1569, MDA-MB-453, or MDA-MB-231 cells were cultured in RPMI-1640 medium containing 10% FBS. • 2. Cell Preparation: HCC1569, MDA-MB-453, or MDA-MB-231 cells in logarithmic phase were taken, washed with PBS once, and digested with 2-3 mL of trypsin for 2-3 min. After the cells were digested completely, 10-15 mL of cell culture was added to elute the digested cells. […] The cells were stained with trypan blue and viable cells were counted. • 3. […] Sample adding: the prepared samples to be detected at different concentrations were added to the culture plate, and two duplicate wells were set for each sample. […] Plate reading: the 96-well cell culture plate was taken out, placed in a 2104 EnVision microplate reader, and measured for the chemiluminescence using the microplate reader. […]

Where only a bound is given, the exact number is not on record here.

B1: ADC-1-X1: anti-Her3 antibody hu3F8-2 conjugated with linker-payload X1, DAR 7.12 (conjugate)
heavy: QVQLQESGPGLVKPSETLSLTCTVSGYSITSAYYWNWIRQPFGKGLEWMGYISYDGRNNFNPSLKNRVTISRDTSKNQFSLKLSSVTAADTAVYYCARDGDYDYFDYWGQGTTVTVSS[human IgG1 constant region left out]
light: DIQMTQSPSSLSASVGDRVTITCRASQDISNYLNWYQQKPGKAPKLLIYYTSILHSGVPSRFSGSGSGTDYTFTISSLQPEDIATYFCQQGDTLPPTFGGGTKLEIKRTVAAPSVFIFPPSDEQLKSGTASVVCLLNNFYPREAKVQWKVDNALQSGNSQESVTEQDSKDSTYSLSSTLTLSKADYEKHKVYACEVTHQGLSSPVTKSFNRGEC
In the case of B1, the “Average number of fluorescence dots in cells” value in the experiment with MDA-MB-453 cells (assay time 2 h) is 1.1; in the experiment on MDA-MB-453 cells (assay time 4 h) it was 2.0; in the experiment with MDA-MB-453 cells (assay time 6 h), 2.5; with MDA-MB-453 cells (assay time 24 h), 2.7; with MDA-MB-453 cells (assay time 48 h), 4.0. The Mean tumor volume with Colo205 xenograft is on record as 385.11 ± 111 mm^3; in experiment [1], 254.63 ± 57.6 mm^3. The “Tumor growth inhibition %” value in the experiment on Colo205 xenograft was 24.33%; in experiment [1], 76.39%. In the experiment with MDA-MB-231 cells, this molecule showed an IC50 of more than 100 nM.
